# Among all 420,000 compounds or so, about 50,000 (12%) were called active. Roughly 26% stayed inconclusive and do not appear here. The call rests on the fitted dose curve; in most records, active means well fitted inhibition curve with a large enough effect; inconclusive means small, poorly fitted or top-dose-only effect; inactive means flat fitted curve, though single readings scatter. This is a selection; strong and weak results do not stand in their true shares. The source holds several records for some structures; these can differ, active in one and inactive in another.
# Assay: qHTS for Inhibitors of human tyrosyl-DNA phosphodiesterase 1 (TDP1): qHTS in cells in presence of CPT; further: nearly all actives have a fitted effect of over 55% in size
# Settings: chicken DT40 Tdp1-/-;hTDP1 cells + 20 nM CPT, ATP luminescence, 48 h; series mostly up to 46.2 µM; activity change, negative = growth inhibition: at the top concentration
# Text: Human tyrosyl-DNA phosphodiesterase 1 (TDP1) is a novel repair gene, and we propose to use it as a new target for anticancer drug development. TDP1 is not an essential protein, but under treatment with topoisomerase I poison (camptothecin: CPT), TDP1 works as a critical factor for cell survival. To directly identify novel TDP1 inhibitors active in a cellular environment, we have knocked-out the Tdp1 gene in chicken DT40 cells (Tdp1-/-) and generated a complemented counterpart cells that contains a stable transfection of the human TDP1 gene (Tdp1-/-;hTDP1 cells). For the primary screen, Tdp1-/-;hTDP1 cells will be exposed to small molecules in the presence or absence of CPT, and their growth kinetics will be evaluated after 48 hours by measuring ATP activity. […] The hit compounds will then be evaluated in the presence or absence of CPT using Tdp1-/- cells. […] In tertiary assays, biochemical gel-based assays will be used to assess whether the hit compounds specifically target TDP1. To this end, we have screened this cell line against the MLSMR in two primary screens. In one screen we add CPT and in the other we screen in the absence of CPT; this AID represents the screen where CPT was present. NIH Chemical Genomics Center [NCGC] NIH Molecular Libraries Probe Centers Network [MLPCN] MLPCN Grant: MH095538 Assay Submitter (PI): Yves Pommier, NCI
# DT40-hTDP1 cells with 20 nM Camptothecin (add 20 microL of 1 mM CPT stock in 1 L of cell culture medium) were dispensed at 400 cells/5microL/well in tissue culture treated 1536-well white wall/solid bottom assay plates (Greiner Bio-One North America, NC, U.S.A.) using a Multidrop Combi 8 channel dispenser (Thermo Fisher, Waltham, MA, USA). 23 nL compounds and controls were transferred using the pin tool (Kalypsys, San Diego, CA, USA) to the assay plates. The assay plates were then incubated at 37 masculineC for a minimum 48 hr. Three microL of Cell Titer Glo solution was added to the plates and incubated at RT in dark for 30 min. Luminescence was read using ViewLux (Perkin Elmer) with 1 sec exposure slow speed, high gain and 2x binning.
# On the % scale 0 is the no-effect control and ±100 the full control effect; potency means the concentration at half of the fitted maximal effect.
SMILES,"activity change, negative = growth inhibition",Potency
Cc1ccc(Nc2cc(=O)[nH]c(=O)[nH]2)cc1C,inactive: -17.2%,
CS/C(=N\S(=O)(=O)c1cccs1)NC(=O)CSc1nc2ccccc2s1,inactive: -4.76%,
COc1ccc(-n2nnnc2C(c2cccc3ccccc23)N2CCN(C/C=C/c3ccccc3)CC2)cc1 (stereo not given),,active: 7.31 µM
O=C(NCc1ccccn1)c1c(-c2ccccc2)sc2ccccc12,,active: 23.1 µM
CCOc1ccc2ccccc2c1C(=O)N[C@@H]1C(=O)N2[C@@H]1SC(C)(C)[C@@H]2C(=O)O,,inactive
CC(CNC(=O)CN1C(=O)CCSc2ccccc21)c1ccccc1 (stereo not given),inactive: 55.7%,
CC(C)NCC(O)COc1ccc(CCOCC2CC2)cc1 (stereo not given),inactive: 1.88%,
O=C1[C@H]2[C@H](C=CC[C@H]2C(=O)N2CCOCC2)CCN1Cc1ccc(Cl)c(Cl)c1,inactive: 4.44%,
CCCN1CCCC[C@H]1C(=O)Nc1c(C)cccc1C,inactive: 8.04%,
COc1cccc(Oc2ccc(OC)cc2C(=O)O)c1,inactive: 3.84%,
Cc1ccc(S(=O)(=O)NC(=O)NCc2ccc(F)cc2)cc1,inactive: 50.5%,
CCC1CCCCN1CCCNC(=O)CN1C(=O)CSc2ccc(S(=O)(=O)N3CCC(C)CC3)cc21 (stereo not given),inactive: -11.1%,
COC(C[C@@H](O)[C@H](C)[C@H](O)COCc1ccccc1)OC,inactive: 10.9%,
C=CCNc1nc(-c2ccc(O)c(C(N)=O)c2)cs1,,active: 13 µM
COc1ccc([C@H](NC(=O)OC(C)(C)C)C(=O)OC(C)(C)C)cc1,inactive: -22.6%,
CN/C(=C\[N+](=O)[O-])NCCSCc1ccc(CN(C)C)o1,,inactive
CS(=O)(=O)c1ccccc1C(=O)N(CCC1=CCCCC1)c1c(N)n(Cc2ccccc2)c(=O)[nH]c1=O,,active: 29.1 µM
CC1=C(C(=O)Nc2ccccc2)C(c2ccc(C)cc2)N=C(Nc2nc3ccccc3o2)N1 (stereo not given),,active: 18.4 µM
O=C1/C(=C/c2ccncc2)SC(=S)N1C1CCCCC1,inactive: -12.5%,
OCC[C@@H]1C[C@@H](O)[C@H](O)[C@]2(OCCc3ccccc32)O1,inactive: -20.9%,
Cc1nnc(SCC(=O)Nc2cc(S(=O)(=O)N3CCOCC3)ccc2N2CCCC2)s1,inactive: 50.6%,
O=C1C(Cc2ccccc2)Nc2ncnc(N3CCOCC3)c2N1Cc1ccc(Cl)cc1 (stereo not given),inactive: -18.8%,
CCOCN(C(=O)Cn1cnc2ccccc21)c1c(C)cccc1CC,,active: 20.6 µM
CCC(C)NC(=S)Nc1ccccc1OC (stereo not given),inactive: -2.27%,
CNC(=O)c1ccc(NC(=O)c2cc(S(=O)(=O)N3CCOCC3)ccc2N2CCCC2)cc1,inactive: -2.53%,

SMILES,"activity change, negative = growth inhibition",Potency
COc1ccc(N2CCN(C(=O)COCc3cc(-c4ccc5c(c4)OCO5)on3)CC2)cc1,inactive: -28.9%,
CCOc1ccc(NC(=O)CSc2ncnc3c2sc2ccccc23)cc1,inactive: -0.672%,
COc1ccc(/C=C(\NC(=O)c2ccc([N+](=O)[O-])cc2)C(=O)NCCN2CCOCC2)cc1,inactive: 3.24%,
CCOC(=O)[C@@H]1[C@H]2COc3cc(OC)ccc3[C@@H]2N2C(=O)N(c3cccc(F)c3)C(=O)[C@]12C,inactive: -11.1%,
CC(NC(=O)COc1ccccc1)C(=O)OCC(=O)c1cc2ccccc2o1 (stereo not given),inactive: -18.2%,
CCCC(C)C(=O)Nc1cc([N+](=O)[O-])ccc1Cl (stereo not given),inactive: 33.4%,
CC(=O)Nc1ccc(NC(=O)c2cc(=O)c3ccccc3o2)cc1,inactive: -24.5%,
COc1ccccc1Oc1coc2cc(O)ccc2c1=O,inactive: -24.4%,
O=C1CCC(=O)N1OCCOc1ccc(Cl)c2ccccc12,inactive: 37.1%,
C=CC[C@H](CC(=O)OC(C)(C)C)C(=O)OC[C@H]1CCCN1C(=O)[C@H](CC=C)CC(=O)NCCO,inactive: -1.68%,
COc1ccc(COCCN2CCN(S(=O)(=O)c3ccc(C)cc3)CCC2=O)cc1,,active: 20.6 µM
O=C(O)COCCN1CCN(C(c2ccccc2)c2ccc(Cl)cc2)CC1 (stereo not given),,inactive
C[C@H]1CN(C2CCCCC2)C(=O)[C@@H]1CC(=O)NCc1ccccc1,inactive: 9.13%,
N=C(N)c1ccc(/C=C/c2ccc(C(=N)N)cc2O)cc1,inactive: -103%,
Cc1cccc(-c2cc(=O)c3cc(C)ccc3o2)c1,inactive: 5.69%,
O=C(Nc1nnc(-c2ccco2)o1)c1ccc([N+](=O)[O-])s1,,active: 8.2 µM
Cc1cccc(CC(=O)Nc2ccc3nc(N4CCC(C)CC4)cc(C)c3c2)c1,,active: 20.6 µM
COc1ccc([C@H]2CC(=O)c3c(O)cc(O)cc3O2)cc1O,inactive: -1.14%,
NS(=O)(=O)c1ccc(NC(=O)CCCCC(=O)Nc2ccc(S(N)(=O)=O)cc2)cc1,inactive: -31.2%,
Cc1cc(OC(C)C(=O)NC(Cc2c[nH]c3ccc(O)cc23)C(=O)O)c2c(C)cc(=O)oc2c1 (stereo not given),inactive: 37.1%,
CCC1OC(=O)C(C)C(OC2C[C@@](C)(OC)C(O)C(C)O2)C(C)C(O[C@@H]2OC(C)CC(N(C)C)C2O)[C@](C)(O)CC(C)C(=NOCOCCOC)C(C)C(O)[C@]1(C)O (stereo not given in full),inactive: -13.3%,
CC1CCCCN1S(=O)(=O)c1ccc(C(=O)N(CCCN(C)C)c2nc3ccc(Br)cc3s2)cc1 (stereo not given),,active: 20.6 µM
COc1cc(OC)c(NC(=O)CCNS(=O)(=O)c2ccc3c(c2)oc(=O)n3C)cc1Cl,inactive: 1.44%,
CC(=O)NC(CCS(C)(=O)=O)C(=O)Nc1cccc2ccccc12 (stereo not given),inactive: 38.3%,
CCN(c1cc(C)cc(C)c1)S(=O)(=O)c1nnc(NC(=O)c2ccco2)s1,inactive: -30%,
